PubChem BioAssay AID2675 (National Center for Advancing Translational Sciences (NCATS), 2010)
Screen size: about 280,000 compounds; about 100 (0.036%) were called active. The inconclusive results got no clear call from the source; some entries with a clear call stand among them for comparison. Calls come from the whole dose curve; as a rule, active = well fitted inhibition curve with a large enough effect in the signal ratio, with a control signal flat (not every such curve was filed as active); inconclusive = small, poorly fitted or top-dose-only effect, or effect the other way, or a change in a side signal; inactive = no such curve, though single readings can be large or run the other way; the % refers to the signal ratio. Potencies of inconclusive entries are doubtful fits and often do not repeat. A note “side channel” means that the fit belongs to a control or component signal, not to the main read-out.
Potency is the fitted concentration of half-maximal effect; tags give direction and shape of the fitted curve or compound fluorescence and quenching.

What follows are compounds tested against Muscleblind-like protein 1 (Homo sapiens) (UniProt Q9NR56) (assay: qHTS Assay for Inhibitors of MBNL1-poly(CUG) RNA binding). Details: TR-FRET MBNL1-His/biotin-(CUG)12 binding, 665/545 ratio; series mostly up to 57.5 µM.
Sequence of UniProt Q9NR56 (Q9NR56 whole entry, looked up): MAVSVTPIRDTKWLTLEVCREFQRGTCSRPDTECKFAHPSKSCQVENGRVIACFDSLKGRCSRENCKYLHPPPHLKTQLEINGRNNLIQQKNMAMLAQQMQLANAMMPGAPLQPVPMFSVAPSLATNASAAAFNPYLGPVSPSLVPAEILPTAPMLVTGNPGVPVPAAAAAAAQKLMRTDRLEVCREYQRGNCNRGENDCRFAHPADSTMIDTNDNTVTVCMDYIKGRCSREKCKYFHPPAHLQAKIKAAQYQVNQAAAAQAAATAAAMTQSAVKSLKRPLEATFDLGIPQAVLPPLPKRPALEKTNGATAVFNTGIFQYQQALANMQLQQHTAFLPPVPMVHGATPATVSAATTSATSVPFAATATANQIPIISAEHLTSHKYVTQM
From the text: NIH Chemical Genomics Center [NCGC] NIH Molecular Libraries Probe Production Centers Network [MLPCN] MLPCN Grant: R03 MH087421-01 Assay Submitter (PI): Charles Thornton NCGC Assay Overview: Expanded CTG repeats in the 3' untranslated region of the DM protein kinase (DMPK) gene causes type I myotonic dystrophy (DM1). DM1 is a multi-systemic disease with a prevalence of 1/7000. Clinical features include myotonia, progressive muscle weakness and wasting, cardiac arrhythmia, insulin resistance, hypersomnolence, cataracts, and other symptoms. The pathogenic effect of expanded CTG repeats stems from deleterious effects of the mutant transcript. CUGexp mRNA accumulates in nuclear foci and sequesters proteins of the muscleblind family, of which MBNL1 is the most common family member in skeletal muscles. The binding interaction between MBNL1 and CUGexp tracts leads to deregulation of alternative splicing and is therefore a key molecular step in the pathogenesis of DM1. To target this binding interaction, we optimized a protein-RNA binding assay in 1536-well format for identification of small molecule inhibitors of biotinylated (CUG)12 and his-tagged MBNL1 binding. Protein-RNA complex of MBNL1-His and Biotin-(CUG)12 captures the detection reagents terbium-labeled anti-His antibody and streptavidin conjugated XL665. This brings the terbium label within close proximity to XL665 to allow time-resolved fluorescence resonance energy transfer (TR-FRET). Inhibitors of MBNL1-(CUG)12 binding will disrupt TR-FRET.
NCGC Assay Protocol Summary: This is a TR-FRET binding assay with MBNL1-His and Biotin-(CUG)12 RNA. The assay uses a ratiometric measurement. In the presence of MBNL1-(CUG)12 complex, the excitation energy is transferred to the XL665 acceptor label, causing emission at 665nm, while the 545nm donor signal […]. Data were normalized to the controls for basal activity (buffer only) and 100% activity (with MBNL1-(CUG)12). […] The final titration was 92 nM to 58 uM. (3) Add 1 ul of terbium labeled anti-His antibody (0.055 ng/ul final concentration) (4) Add 1 ul of streptavidin-XL665 (5 nM final concentration) (5) Incubate 60 min at room temperature (6) Detect the assay plate in a EnVision plate reader (PerkinElmer) with Ex=340 nm, Em1=665 nm and Em2=545 nm. Keywords: mytonic dystrophy type I, DM1, muscleblind like 1, MBNL1, CUG expansion, protein-RNA binding inhibitor, high throughput screening, MLSMR, MLSCN, NIH Roadmap, qHTS and NCGC
With `O=S1(=O)N=C(N/N=C/c2ccc(Br)o2)c2ccccc21` the Potency was inconclusive: 22.4 µM [quencher, side channel, single point].
In the case of `COc1ccc(NC(=O)NCCCN2CCC(Cc3ccccc3)CC2)cc1`, the Potency is reported as “inactive”.
In the case of `CCCCN1C(=O)c2ccc(C(=O)NC3=NCCS3)cc2C1=O`, the Potency is reported as inconclusive: 11.2 µM [quencher, side channel, partial curve].
For `Cc1ccccc1NC(=O)C(C)O/N=C/c1cccc([N+](=O)[O-])c1` (centres undefined), the Potency was inconclusive: 22.4 µM [quencher, partial curve].
For `COc1cccc(/C=C2/SC(=O)N(C)C2=O)c1OCc1ccc(C(=O)O)cc1`, the Potency was inconclusive: 15.8 µM [quencher, side channel, partial curve].
For `Cc1ccc(NC(=O)COC(=O)c2ccc3c(c2)OCCO3)cc1S(=O)(=O)N1CCOCC1`, the Potency was “inactive”.
`CCc1ccc(NC(=O)C2CCCN(S(=O)(=O)c3cccs3)C2)cc1` (centres undefined) was tested, and the Potency was “inactive”.
In the case of `COc1cc(/C=C2/SC(=S)N(Cc3ccccc3)C2=O)cc(Cl)c1O`, the Potency is reported as inconclusive: 14.1 µM [quencher, side channel, partial curve].
In the case of `Cc1cc(N2CCOCC2)n2ncc(-c3ccccc3)c2n1`, the Potency is reported as “inactive”.
In the case of `C=CCc1ccccc1OCCNCc1ccccc1`, the Potency is reported as “inactive”.
For `CCOC(=O)c1c(-c2ccccc2)csc1NC(=O)c1cc2ccccc2oc1=O`, the Potency was inconclusive: 0.447 µM [fluorescent, side channel, partial curve].
With `CC(=O)Nc1ccc2oc(-c3cc(F)c(F)cc3Cl)nc2c1` the Potency was inconclusive: 22.4 µM [fluorescent, side channel, single point].
`Cc1ccc(S(=O)(=O)N2CCN(c3ccc([N+](=O)[O-])c(Sc4nncn4C)c3)CC2)cc1` was tested, and the Potency was inconclusive: 12.6 µM [quencher, side channel, partial curve].
`C/C(=C\C(=O)c1ccccc1)Nc1ccc(O)cc1` was tested, and the Potency was inconclusive: 31.6 µM [quencher, side channel, single point].
For `c1ccc2c(c1)CCN(c1ncnc3c1[nH]c1ccccc13)C2`, the Potency was “inactive”.
In the case of `CN(C)CCNC(=O)c1c(O)c2c([nH]c1=O)CCCC2`, the Potency is reported as inconclusive: 1.78 µM [fluorescent, side channel, full curve, poor fit].
`CC12CCC(C(=O)N(NC(=O)c3cccnc3)C1=O)C2(C)C` (centres undefined) was tested, and the Potency was inconclusive: 3.16 µM [quencher, side channel, partial curve].
In the case of `CCCCn1c(N)c(NCCC(C)C)c(=O)[nH]c1=O`, the Potency is reported as inconclusive: 31.6 µM [quencher, side channel, single point].
With `O=C(CN1CCOCC1)N1CCCc2c1c(=O)oc1ccc(OCc3ccccc3)cc21` the Potency was inconclusive: 25.1 µM [quencher, side channel, partial curve].
With `Cn1c2c(c(=O)n(C)c1=O)C(c1ccccc1Cl)C(C#N)=C(N)O2` (centres undefined) the Potency was “inactive”.
With `CC(=O)Oc1ccc(/C=N/NC(=S)Nc2ccccc2)cc1` the Potency was inconclusive: 2 µM [quencher, side channel, full curve].
In the case of `COc1cc(/C=N/NS(=O)(=O)c2ccc(C)c([N+](=O)[O-])c2)ccc1O`, the Potency is reported as inconclusive: 31.6 µM [quencher, side channel, single point].
`O=C1C(=O)N(CC(=O)N2CCCC2)c2ccccc21` was tested, and the Potency was inconclusive: 25.1 µM [quencher, side channel, single point].
For `Oc1ccc(-c2nc(-c3ccc(O)c(O)c3)cs2)cc1`, the Potency was inconclusive: 31.6 µM [quencher, side channel, single point].
With `Cc1cccc(NC(=O)c2ccc([N+](=O)[O-])s2)n1` the Potency was inconclusive: 39.8 µM [quencher, single point].
`COc1cc(/C=C(/C#N)c2nc3ccccc3[nH]2)ccc1Oc1ncccc1[N+](=O)[O-]` was tested, and the Potency was inconclusive: 15.8 µM [quencher, side channel, partial curve].
With `Cc1cc(CNC(=O)c2cccc([N+](=O)[O-])c2)c2ccccc2n1` the Potency was inconclusive: 7.08 µM [quencher, side channel, partial curve].
In the case of `COc1ccc(-c2cc3nc(C)n(N)c(=O)c3s2)cc1`, the Potency is reported as inconclusive: 2.82 µM [quencher, side channel, full curve].
In the case of `CCOc1cc(/C=C/c2nc3ccccc3s2)ccc1OCC(=O)N1CCOCC1`, the Potency is reported as inconclusive: 10 µM [quencher, side channel, partial curve].
In the case of `O=[N+]([O-])c1ccc(/C=N/NC(=S)Nc2ccccc2F)o1`, the Potency is reported as inconclusive: 31.6 µM [quencher, side channel, partial curve].
`O=C(N/N=C/c1ccc([N+](=O)[O-])o1)c1cc(-c2ccncc2)nc2ccccc12` was tested, and the Potency was inconclusive: 2.24 µM [quencher, side channel, full curve].
For `Cc1c(C(C)NC(=O)c2cc(COc3cccc4cnccc34)on2)cnn1C` (centres undefined), the Potency was inconclusive: 10 µM [quencher, side channel, partial curve].
With `CC(C)(C)n1cnc2cc(NCc3ccc(Br)cc3)ccc21` the Potency was “inactive”.
In the case of `COc1ccc(CCn2c(C)cc(C(=O)CCl)c2C)cc1OC`, the Potency is reported as “inactive”.
In the case of `Cc1oc2c(c1C(=O)c1ccccc1)C(=O)C(=O)c1ccccc1-2`, the Potency is reported as “inactive”.
With `O=C(c1ccccc1)C1C(=O)c2ccccc2C1=O` the Potency was inconclusive: 39.8 µM [quencher, single point].
With `CCOC(=O)C(C)On1c(-c2ccc(Cl)cc2)nc2ccc([N+](=O)[O-])cc21` (centres undefined) the Potency was inconclusive: 15.8 µM [quencher, side channel, partial curve].
In the case of `Cc1ccc(S(=O)(=O)CCC(=O)OCc2ccc(Cl)c(Cl)c2)cc1`, the Potency is reported as inconclusive: 28.2 µM [fluorescent, side channel, partial curve].
In the case of `Cc1cc[n+]2cc(-c3cccc([N+](=O)[O-])c3)c(-c3cccc([N+](=O)[O-])c3)cc2c1`, the Potency is reported as inconclusive: 3.16 µM [quencher, side channel, partial curve].
`COc1ccc(CN2C(=O)CCC2(C)C(=O)NCc2cccnc2)c(OC)c1` (centres undefined) was tested, and the Potency was inconclusive: 0.794 µM [fluorescent, side channel, single point].
`COc1ccccc1C/C(N)=N/OC(=O)c1cccc([N+](=O)[O-])c1C` was tested, and the Potency was inconclusive: 11.2 µM [quencher, side channel, partial curve, poor fit].
For `CS(=O)(=O)c1ccc(C(=O)OC2CCOC2=O)cc1[N+](=O)[O-]` (centres undefined), the Potency was inconclusive: 15.8 µM [quencher, side channel, partial curve].
`Nc1ccc(-c2c3ccc(=O)cc-3oc3cc(O)ccc23)cc1C(=O)O` was tested, and the Potency was inconclusive: 7.94 µM [quencher, side channel, partial curve].
`CCN(CC)c1ccc(C(=O)OCC(=O)NC2CCCCC2C)cc1` (centres undefined) was tested, and the Potency was “inactive”.
With `O=C(c1ccccc1[N+](=O)[O-])n1cnc2ccccc21` the Potency was inconclusive: 17.8 µM [quencher, side channel, partial curve].
With `CCCCn1nc2cc(C(=O)NCC34CC5CC(CC(C5)C3)C4)ccc2c1OCC` the Potency was inconclusive: 3.98 µM [quencher, side channel, full curve].
With `O=C(COc1ccc(S(=O)(=O)Nc2ccccc2)cc1)NCc1cccnc1` the Potency was inconclusive: 0.1 µM [fluorescent, side channel, full curve].
In the case of `O=C(CCN1CCN(c2ccccc2)CC1)N/N=C/c1ccc([N+](=O)[O-])o1`, the Potency is reported as inconclusive: 14.1 µM [quencher, partial curve].
In the case of `Cc1cc(-n2c(C)cc(C(=O)CN3C(=O)NC4(CCCC4)C3=O)c2C)no1`, the Potency is reported as inconclusive: 0.708 µM [quencher, side channel, full curve].
`O=[N+]([O-])c1ccc(Nc2ccc(F)cc2)nc1` was tested, and the Potency was inconclusive: 5.62 µM [quencher, side channel, full curve].
In the case of `Cc1c2ccccc2cc(Cc2ccccc2)[n+]1C`, the Potency is reported as inconclusive: 25.1 µM [quencher, side channel, single point].
For `COC(=O)c1cc(C(=O)N(Cc2ccccc2)c2ccccn2)cc([N+](=O)[O-])c1`, the Potency was inconclusive: 28.2 µM [quencher, side channel, partial curve].
For `CN(C)c1ccc(N=C/C=C2/N(C)c3ccccc3C2(C)C)cc1`, the Potency was inconclusive: 39.8 µM [quencher, side channel, partial curve].
With `O=C1OCC/C1=C\c1ccc2c(c1)OCO2` the Potency was inconclusive: 15.8 µM [quencher, side channel, partial curve].
With `Cc1nnc(N2CCCC(C(=O)NCc3ccc(OC(C)C)cc3)C2)c2nn(-c3ccccc3)c(C)c12` (centres undefined) the Potency was inconclusive: 158 µM [inhibitor, partial curve].
In the case of `NC(=O)c1nsc(C(=O)N(c2ccc3c(c2)OCCO3)C(C(=O)NCC2CCCO2)c2ccc(F)cc2)c1N` (centres undefined), the Potency is reported as inconclusive: 126 µM [inhibitor, partial curve].
`CCOC(=O)C1=C(N)Oc2cc(O)ccc2C1c1ccc([N+](=O)[O-])cc1` (centres undefined) was tested, and the Potency was inconclusive: 35.5 µM [quencher, side channel, single point].
`COc1cc(/C=N/N2CCN(Cc3ccc(C)cc3)CC2)cc(OC)c1O` was tested, and the Potency was “inactive”.
In the case of `CCCCC(=O)Nc1cccc(-c2ccc3nncn3n2)c1`, the Potency is reported as inconclusive: 25.1 µM [quencher, side channel, partial curve].
